The list shows a part of the results.
Assays:
Assay in all cases: glycan array binding signal (z-score within array); higher = stronger binding
Settings in all cases: glycan notation: IUPAC condensed, linker removed
[1] = molecular target: Gal3S6S(b1-4)GlcNAc
How it was run: (§1)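 Glycan array data came from 3228 arrays in the Consortium for Functional Glycomics database, and only arrays with an available protein sequence were kept. Glycan names were put into IUPAC-condensed notation, and columns mapping to the same glycan were averaged. The binding signal is a within-array Z-score, averaged across arrays of one protein sequence run at different concentrations or buffers and across linkers. A negative Z-score can be read as non-binding.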

[2] = molecular target: Gal3S6S(b1-4)GlcNAc6S
How it was run: as §1

[3] = molecular target: Gal4S(b1-4)GlcNAc
How it was run: as §1

[4] = molecular target: Gal4S6S(b1-4)GlcNAc
How it was run: as §1

[5] = molecular target: Gal6P(b1-4)GlcNAc
How it was run: as §1

[6] = molecular target: Gal6S(b1-3)GlcNAc
How it was run: as §1

[7] = molecular target: Gal6S(b1-3)GlcNAc6S
How it was run: as §1

[8] = molecular target: Gal6S(b1-4)Glc
How it was run: as §1

[9] = molecular target: Gal6S(b1-4)Glc6S
How it was run: as §1

[10] = molecular target: Gal6S(b1-4)GlcNAc
How it was run: as §1

[11] = molecular target: Gal6S(b1-4)GlcNAc6S
How it was run: as §1

[12] = molecular target: GalNAc(a1-3)Gal
How it was run: as §1

[13] = molecular target: GalNAc(a1-3)GalNAc
How it was run: as §1

[14] = molecular target: GalNAc(a1-3)GalNAc(b1-3)Gal(a1-4)Gal(b1-4)Glc
How it was run: as §1

[15] = molecular target: GalNAc(a1-3)GalNAc(b1-3)Gal(a1-4)Gal(b1-4)GlcNAc
How it was run: as §1

[16] = molecular target: GalNAc(b1-3)Gal
How it was run: as §1

[17] = molecular target: GalNAc(b1-3)Gal(a1-4)Gal(b1-4)GlcNAc
How it was run: as §1

[18] = molecular target: GalNAc(b1-3)Gal(a1-4)Gal(b1-4)GlcNAc(b1-3)Gal(b1-4)Glc
How it was run: as §1

[19] = molecular target: GalNAc(b1-3)Gal(a1-6)Gal(b1-4)Glc
How it was run: as §1

[20] = molecular target: GalNAc(b1-3)GalNAc
How it was run: as §1

[21] = molecular target: GalNAc(b1-3)GlcNAc
How it was run: as §1

[22] = molecular target: GalNAc(b1-4)Gal(b1-4)Glc
How it was run: as §1

[23] = molecular target: GalNAc(b1-4)GlcNAc
How it was run: as §1

[24] = molecular target: GalNAc(b1-4)GlcNAc(b1-2)Man
How it was run: as §1

[25] = molecular target: GalNAc(b1-4)GlcNAc(b1-2)Man(a1-3)[GalNAc(b1-4)GlcNAc(b1-2)Man(a1-6)]Man(b1-4)GlcNAc(b1-4)GlcNAc
How it was run: as §1

[26] = molecular target: GalNAc(b1-4)GlcNAc(b1-3)GalNAc(b1-4)GlcNAc
How it was run: as §1

[27] = molecular target: GalNAc(b1-4)GlcNAc6S
How it was run: as §1

[28] = molecular target: GalNAc(b1-6)GalNAc
How it was run: as §1

[29] = molecular target: GalNAc3S(b1-4)GlcNAc
How it was run: as §1

[30] = molecular target: GalNAc3S(b1-4)GlcNAc3S
How it was run: as §1

[31] = molecular target: GalNAc3S(b1-4)[Fuc(a1-3)]GlcNAc
How it was run: as §1

[32] = molecular target: GalNAc4S6S(b1-4)GlcNAc
How it was run: as §1

[33] = molecular target: GalNAc6S(b1-4)GlcNAc
How it was run: as §1

[34] = molecular target: Glc(a1-4)Glc
How it was run: as §1

[35] = molecular target: Glc(a1-4)Glc(a1-4)Glc(a1-4)Glc
How it was run: as §1

[36] = molecular target: Glc(a1-6)Glc(a1-6)Glc
How it was run: as §1

[37] = molecular target: Glc(a1-6)Glc(a1-6)Glc(a1-6)Glc
How it was run: as §1

[38] = molecular target: Glc(b1-4)Glc
How it was run: as §1

B1: PX14367A-bth-493-35-493 (Bacteroides thetaiotaomicron) (protein)
chain: VSSDQVAVAGNAERLFNGAWYNLFEYGTTYANIGYRALQCQDDMMASDVVSRPKYGFNSSYQFNDVAIPSDGRTSFAWYLIYKTIDNCNTAISIKGDSEELRQAQGQALALRAFCYLHLVQHYQFTYLKDKDAPCVPIYTEPTTSGTKPKGKSTVAQVYQQIFDDLNLAQDYLTNYVRKGDGQKFKPNTDVVNGLMARAYLLTGQWGEAAKAAEAARKGYSLMTTTAEYEGFNNISNKEWIWGSPQTLSQSDASYNFYYLDATYVGAYSSFMADPHLMDTFVKGDIRLPLFQWMREGYLGYKKFHMRSDDTADLVLMRSAEMYLIEAEAKVRDGVALDQAVAPLNTLRTARGVGNYDVTGKTKEQVIDEILMERRRELWGEGFGITDVLRNQKAVERMALSEDMQKTEVDCWQEGGSFAKRNPLGHWFLNFPDGKAFSANSSYYLYAIPEKEINANPNL
glycan array binding signal (z-score) [1]: -0.108
glycan array binding signal (z-score) [2]: 0.726
glycan array binding signal (z-score) [3]: 0.544
glycan array binding signal (z-score) [4]: -0.34
glycan array binding signal (z-score) [5]: -0.64
glycan array binding signal (z-score) [6]: -0.007
glycan array binding signal (z-score) [7]: 0.464
glycan array binding signal (z-score) [8]: 0.199
glycan array binding signal (z-score) [9]: 0.194
glycan array binding signal (z-score) [10]: -0.466
glycan array binding signal (z-score) [11]: -0.082
glycan array binding signal (z-score) [12]: 0.247
glycan array binding signal (z-score) [13]: -0.456
glycan array binding signal (z-score) [14]: -0.292
glycan array binding signal (z-score) [15]: -0.39
glycan array binding signal (z-score) [16]: 0.127
glycan array binding signal (z-score) [17]: 4.2
glycan array binding signal (z-score) [18]: -0.645
glycan array binding signal (z-score) [19]: 0.556
glycan array binding signal (z-score) [20]: -0.542
glycan array binding signal (z-score) [21]: 0.281
glycan array binding signal (z-score) [22]: 0.188
glycan array binding signal (z-score) [23]: 0.378
glycan array binding signal (z-score) [24]: -0.169
glycan array binding signal (z-score) [25]: 0.687
glycan array binding signal (z-score) [26]: 0.074
glycan array binding signal (z-score) [27]: 0.113
glycan array binding signal (z-score) [28]: -0.073
glycan array binding signal (z-score) [29]: -0.581
glycan array binding signal (z-score) [30]: -0.565
glycan array binding signal (z-score) [31]: -0.48
glycan array binding signal (z-score) [32]: -0.307
glycan array binding signal (z-score) [33]: 0.147
glycan array binding signal (z-score) [34]: -0.602
glycan array binding signal (z-score) [35]: -0.027
glycan array binding signal (z-score) [36]: -0.571
glycan array binding signal (z-score) [37]: 0.585
glycan array binding signal (z-score) [38]: -0.211
